Data taken from the supplement of paper PMC11417369.
± gives the standard deviation of the averaged measurements. The list shows a part of the results.

tested on: PfAP2-EXP AP2 domain (GST-tagged); experiment: gcPBM binding intensity (ln(normalized median fluorescence intensity)); higher = stronger DNA binding
How it was run: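 An Agilent 4 × 180k array carrying primer-extended double-stranded 36-bp intergenic genomic probes and negative controls received GST-tagged P. falciparum DNA-binding domains expressed in E. coli, about 25 μg on average, for 1 h. The binding buffer contained 1× PBS, 1% milk, 0.2 mg/ml BSA, 0.5% salmon testes DNA and 0.03% Triton X-100. Binding intensity is the top Masliner-normalised natural-log median intensity across replicate spots of either probe orientation, read after Alexa488 anti-GST antibody staining and a 488 nm scan.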

Sequence	gcPBM binding intensity (ln)
AACATACGACAATACGCACACATATAAGTACATATT [CACACA_site8584]	8.61 ± 0.29
TTTATAAAAAGCATAACACACACATGTCAATATATA [CACACA_site8286]	8.67 ± 0.33
ATACATTCAAAATATACACACATATATCTATAATAT [CACACA_site6576]	8.39 ± 0.4
TTTCTTTAGTAGAATGTAAAAAATATAATCTTCTTA [TGCATGCA_negctrl_site298]	7.79 ± 0.52
TACTTTTTTTTTTTTTTTTTTTTTTTTTCCCTTTTT [CACACA_negctrl_site761]	8.22 ± 0.52
GTTTATTTATTATAATGTACATTAGTCTGAGGAGTT [XGTACX_site4035]	8.96 ± 0.77
TTTTATTTATATATAGTGCATATTATTATAAAACAA	8.37 ± 0.24
ATATATATATATATATGTACATATGTTAATCTGCAT [XGTACX_site1068]	10.2 ± 0.31
CTTTTTTTCCATTAAGCATGCACATTCATATTTACT [TGCATGCA_site170]	9.4 ± 0.44
TATATATATATAGGTTGTACATTTTGATGTTTACGT [XGTACX_site5503]	10 ± 0.18
CACACCCACAAAAACACACACAAAGGTGTTCTTATA [CACACA_site1293]	9.43 ± 0.64
ATAACATTCATATTCACACAAAAATATACTACATAG [CACACA_site4529]	8.77 ± 0.49
TATATATATATATATACACACATATATATATTTATA [CACACA_site627]	10.3 ± 0.18
TATTTATTTTTTTGCACACATATTTTACATTTTAAT [CACACA_site3181]	9.09 ± 0.28
TGTAGTCTGGAGAAACGTACATAGTATCTGGTAACC [XGTACX_site4939]	8.71 ± 0.38
ATTGAAAATTGTTGCACACATAATAATTAAATATAT [CACACA_site1857]	8.37 ± 0.23
ATATAAAAAGTGTATCGTACATTTACTTATTTTATA [XGTACX_site6249]	8.46 ± 0.3
ATAAAAAAAGGACACACACACATATATATATATATA [CACACA_site5662]	10.2 ± 0.42
TATAAATATGTTCTTACACACACGAATATAAATATG [CACACA_site7537]	8.45 ± 0.38
TTACATAATATATGTACACACGCAAATACTTATAAT [CACACA_site7995]	8.74 ± 0.44
TATATTTCTTATTTCTTATTTTGTCATCACCTTTTT [CACACA_negctrl_site1115]	8.73 ± 0.42
AAAAAAATCACATAAAATACTTTATTTTATATTATA [GTGCAC_negctrl_site372]	7.89 ± 0.36
AAATTACTTTCACAGTGTACTTGGAAAAAAAAAAGA [XGTACX_site1046]	8.34 ± 0.15

Sequence	gcPBM binding intensity (ln)
TTTTTTTTTTTTTTTTGTACGTAATATATGATTAAT [XGTACX_site6876]	8.42 ± 0.54
CATTTTATCAAAAGTGGTACAACCCTTTCAAAAAAT [XGTACX_site341]	8.07 ± 0.28
AGATATAATAAATATACACACATATATATATATATA [CACACA_site962]	10.1 ± 0.32
TGAAAAATGTTGATGTGTACTTATATAGTGTGTTAA [XGTACX_site2100]	8.5 ± 0.23
TAATTTTATATATGCACACAAAATATGTTCATATAA [CACACA_site4076]	8.405 ± 0.035
TTTAACATAAATTAAACACACAATATAATACATTAA [CACACA_site1237]	8.44 ± 0.42
TATATATATAAACACACACACACATATATATATATT [CACACA_site8814]	9.02 ± 0.23
ATAGTATAACAGCAATGTACACATATTTGTGTATAT [XGTACX_site7899]	8.55 ± 0.32
ATATATATTTAAATGTGTACTCATTTATTTTATGTC [XGTACX_site4984]	8.7 ± 0.21
TGATATTTATAATAAATATTATAATAAAATCAAACA [XGTACX_negctrl_site219]	8.28 ± 0.38
TTTTTTTTTTTTGTCACACATATATTTGTATTTATA [CACACA_site5234]	8.58 ± 0.38
ATATATATTTTTATTTGTACATAATTTTTTTTGTGA [XGTACX_site6378]	8.66 ± 0.34
ATATATGTAATAAATAGTACACACACACATATATAT [XGTACX_site2817]	9.04 ± 0.35
ATAAAATTGTTTAAATGTACATATGAACAGTCAGTA [XGTACX_site5140]	8.71 ± 0.28
TTTTTTTTTTTTTGCACACACATATATAGATATATA [CACACA_site7784]	8.59 ± 0.38
AAAAAAAATTAATAGGGTACATGAAAAGTGGAATAT [XGTACX_site618]	9.26 ± 0.45
CACATACACATACAAACACACATTAGATATAAATAT [CACACA_site6854]	8.59 ± 0.5
ATAGAAGAAATATGCACACATACATTGAAATGTTTT [CACACA_site321]	8.41 ± 0.34
AACAAAATAGGGAACACACACATGTCAATATATAAA [CACACA_site2596]	8.79 ± 0.53
AAAAAAAAATTAAAAACACACATATAAATAAATATA [CACACA_site6845]	8.48 ± 0.48
CCATTAAGACACATTGCACACGTGCACCCATAGAAA [CACACA_site4388]	9.55 ± 0.83
TGAACACGCACAAATACACACAAAAAAAATAAATAA [CACACA_site6257]	8.45 ± 0.67
TTTTTTTTTAAATAATGTACTTTTCATTATTTAGAT [XGTACX_site1706]	8.37 ± 0.46

Sequence	gcPBM binding intensity (ln)
AAAGAAAAAAATAATTGTACATTTATATTTAATTTA [XGTACX_site8003]	8.1 ± 0.4
TTTTTATTTATTAATACACACACACCCACCCACAAA [CACACA_site7965]	9.53 ± 0.65
TTTTTTTTGTGTATTTGTACATAATATATATATATA [XGTACX_site7092]	9.68 ± 0.19
TCGTAATTTTTTTTTATATATTAGGAATTTATAAAA [XGTACX_negctrl_site409]	8.11 ± 0.42
TAATACCATTGTCATGCATGCACATTATTACTCTAA [TGCATGCA_site160]	9.71 ± 0.15
ATATTATATTTCTTTTGTACATATTATATAATATAT [XGTACX_site7198]	8.86 ± 0.14
GTAGGATTTTCTTTTGTGCGCAATATAAAAAGAAAA [GTGCAC_site9514]	8.76 ± 0.31
AAAAGGTATGTTATACATAGATATGCACATATATGT [TGCATGCA_negctrl_site96]	8.7 ± 0.29
ATTAATATAAAAAGGTAAATGGATGTAATATATATA [XGTACX_negctrl_site2]	8.85 ± 0.23
AAAATTGTTATTTTATGTACTTATATTTATTTATTT [XGTACX_site3478]	8.53 ± 0.27
ATATATATAATATAATGTACATATATTTTATTTTTA [XGTACX_site3819]	8.52 ± 0.014
TAATGTATTATATTTAGTACATATAAAAATAATTTT [XGTACX_site6886]	8.11 ± 0.41
ACGTATTAGATAAATACACACACAAGCATATATTTT [CACACA_site9135]	8.44 ± 0.35
AAAGCACCCAAGAATACACACAAATATTATAAAAAA [CACACA_site111]	8.57 ± 0.58
TATATACATTTATGTACACACACATATATGTATATT [CACACA_site8971]	8.59 ± 0.34
ATATATTAATTTAATTGTACGAATAAAAAAAAAAAA [XGTACX_site223]	8.7 ± 0.64
ATAAATAAAAACACAAAACAAAACAAAACAAAACAA [CACACA_negctrl_site1257]	8.41 ± 0.57
ATATATATTGTACTAGTGCATATATATACATATATT	8.52 ± 0.071
TTTCATCTATATGAAACACACAAAGGAAAAAAAATT [CACACA_site7869]	8.88 ± 0.42
AGATTCAAAAATAAAACATGCAAAAATAAAACGTGC [TGCATGCA_site501]	9.26 ± 0.36
TAATAAATGGCTAGTTGTACAGAAATATAAATATTA [XGTACX_site4579]	8.51 ± 0.36
GCCTCATCGTAGCAGTGTACGTTTTTTTTTTTTTTT [XGTACX_site8648]	8.91 ± 0.29
ACAATTTATATTATATGTACTTAAAAAGTTCGTAAA [XGTACX_site6421]	8.21 ± 0.25

Sequence	gcPBM binding intensity (ln)
TTTTATACATAAATATGTACGTATATATAATGAATT [XGTACX_site1337]	8.38 ± 0.37
TATAACATATGACACACACACATACATACACAAAAA [CACACA_site6935]	8.87 ± 0.47
TATATATATTTATGTACACACACACCGATAAATAAA [CACACA_site4404]	8.91 ± 0.48
TTCTAAAATTATATAGTGCAATTATATTAATTTTTC	8.39 ± 0.028
ATAACAACCCAATGTTGTACATTTAAATATAACGTA [XGTACX_site7114]	8.48 ± 0.39
AAAAATAAAAAAAATACATGCAATGAAACATTTATT [TGCATGCA_site263]	8.8 ± 0.13
TTACGCGCTTATTACACACACATACAAATAAGGATT [CACACA_site3486]	8.69 ± 0.47
ATTTGTATTGTATATGCACACATAGAACACTTTTTT [CACACA_site9373]	8.62 ± 0.29
AACAAAATAAAAAAAACATGCAAGAATTCTTATATG [TGCATGCA_site714]	8.86 ± 0.38
TTGTGTTTGAAAAAATGTACATGTGTCTTACAACAA [XGTACX_site8371]	8.61 ± 0.33
TTATACAGATATTTAACACACATTTTATAAAGTGCC [CACACA_site4851]	8.28 ± 0.37
AAATATTTATATGTTACACACTGTTTATAACTTTCT [CACACA_site6752]	8.63 ± 0.43
ACCCTATCTGTAACTACACACCGCATATTGTTTACT [CACACA_site5661]	9.28 ± 0.4
ATAAATGACAGACACACACACAAAAAAAAAAAACAA [CACACA_site2626]	8.84 ± 0.24
CTTCTGTAATTATCACGTACATATAATAATTAAAAT [XGTACX_site8973]	8.65 ± 0.32
TTTTTATCTTTGCTGTGTACATAAATAAAAATAACT [XGTACX_site7625]	8.81 ± 0.18
TTTTTTTTGATAAGTTGTACAATGATATATATCCCT [XGTACX_site3560]	8.69 ± 0.48
ATAGTTTAATTTATATGTACATATAATATTGATTTG [XGTACX_site7520]	8.64 ± 0.4
TATATTTTATATTGGTGTACAATTTTTTTTTTTTTT [XGTACX_site4291]	8.3 ± 0.42
CCTTTTTTTTTTTTATGTACTAAAATAAAATTAGAA [XGTACX_site5956]	8.38 ± 0.25
